Measured values as given in the supplement of paper PMC4166925.
± gives the standard deviation of the averaged measurements. Whole data set: some 33,000 sequences, median “E-score (dimensionless, -0.5 to 0.5)” near -0.046, cut for the highest 2% near 0.36. The list shows a part of the results.

These sequences were tested on T1, SpTbr T-box DNA-binding domain (GST fusion) (assay: PBM E-score of 8-mer (E-score (dimensionless, -0.5 to 0.5)); Tbr is Tbrain of the sea star Patiria miniata (Pm) or the sea urchin Strongylocentrotus purpuratus (Sp); higher = stronger binding preference; most listed sequences are background and not binding sites). Details: the construct has about 5 more residues each side.
T1 sequence: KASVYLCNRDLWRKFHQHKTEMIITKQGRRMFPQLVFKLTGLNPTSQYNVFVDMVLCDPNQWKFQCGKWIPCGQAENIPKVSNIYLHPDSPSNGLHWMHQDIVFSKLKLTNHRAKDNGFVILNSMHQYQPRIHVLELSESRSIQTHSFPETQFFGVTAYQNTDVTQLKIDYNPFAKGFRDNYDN
How it was run: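 GST-fused Tbr T-box DNA-binding domains (the whole T-box plus about five flanking residues) were expressed in BL21 E. coli at 20 °C and purified by glutathione affinity chromatography. Universal Agilent oligonucleotide arrays were made double-stranded by primer extension, incubated with 200 nM protein in PBS (pH 7.5), then scanned and quantified. Every ungapped 8-mer was scored from probe intensities. The Universal PBM Analysis Suite gave each word an enrichment E-score, averaged over duplicate arrays.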

Sequence	PBM E-score of 8-mer
AGCCTCCG	-0.3206 ± 0.0028
GAAACACA	0.147 ± 0.028
GACCCATC	-0.125 ± 0.057
CGCGGAAA	0.0452 ± 0.051
CAGCGACA	0.267 ± 0.016
CTGCTGCA	-0.0183 ± 0.02
CGCAGAAC	-0.15 ± 0.0027
CATTTCGG	-0.0614 ± 0.07
ACGGATAA	-0.107 ± 0.1
CCACTTCC	0.072 ± 0.0026
AGTTTGAC	0.143 ± 0.018
ATCAAGAC	-0.0819 ± 0.046
AGTCCTGG	-0.262 ± 0.021
AACTTTGA	-0.142 ± 0.012
ACCCGTCG	0.189 ± 0.015
AGGAAAGA	-0.138 ± 0.044
CGCATCTC	0.0815 ± 0.0093
AGCACTCG	0.0623 ± 0.0054
CAAAGATG	0.0333 ± 0.031
TCCTCGCA	0.32 ± 0.0082
CCATCCTC	-0.0525 ± 0.015
AGGTTAAA	-0.259 ± 0.084

Sequence	PBM E-score of 8-mer
CGAGGGCG	0.175 ± 0.068
ACACAGAC	0.0656 ± 0.061
ATATATGG	-0.285 ± 0.026
ACCATATC	-0.0486 ± 0.037
CAGCTTGA	-0.108 ± 0.051
AGTCTAAG	-0.3169 ± 0.0024
AGTACATA	-0.159 ± 0.097
GCAGTTCC	-0.108 ± 0.012
ATTCTCAA	0.138 ± 0.062
CCTCGTCA	0.243 ± 0.041
ACTCAGTG	-0.0601 ± 0.013
CTAGTTGA	0.0724 ± 0.0029
CCCTGTAA	0.137 ± 0.0029
AAAAAGCT	-0.194 ± 0.11
CTCACTAC	0.116 ± 0.05
AATTAGAG	-0.242 ± 0.034
GGCCGACC	-0.314 ± 0.012
TATGCAAA	-0.0882 ± 0.035
AAATGCTA	-0.106 ± 0.042
AACGGGCA	0.00372 ± 0.033
AGAATATA	-0.143 ± 0.0095
AATGCATC	0.00662 ± 0.039

Sequence	PBM E-score of 8-mer
ACGATTCA	0.12 ± 0.031
AGGGTAAT	-0.142 ± 0.019
CGCTCCCC	-0.0404 ± 0.07
TCCTCAAA	-0.227 ± 0.043
TGCATTAA	0.022 ± 0.05
TCTTACCA	-0.00983 ± 0.026
CAAGTAGA	-0.0961 ± 0.025
AGGGACGA	0.053 ± 0.072
CCGGCAAC	0.1597 ± 0.00047
CTAGGAAA	-0.206 ± 0.045
ATGACTGG	-0.13 ± 0.0031
CCGTCCCG	-0.0649 ± 0.04
GAGCTATC	-0.177 ± 0.04
CCTTATGC	-0.158 ± 0.016
GCGGCGGA	0.0142 ± 0.09
GAGATGGC	-0.0157 ± 0.0073
GTCCAGAA	-0.3462 ± 0.0029
CGTCACCC	0.329 ± 0.048
CATAGCGA	-0.0855 ± 0.0029
GTCCCTGA	-0.163 ± 0.057
AGGTGGGG	0.238 ± 0.056
CACAGTTC	0.143 ± 0.061

Sequence	PBM E-score of 8-mer
CACTTTCG	0.255 ± 0.012
AAAATGGC	-0.252 ± 0.044
GAACGAAC	0.0292 ± 0.063
AAAGTCCA	-0.342 ± 0.019
AGCCTGGA	-0.223 ± 0.026
AATCCCTA	-0.0686 ± 0.09
AGGGCTAG	-0.124 ± 0.033
ACTATCCT	-0.0859 ± 0.077
CTCAACTA	0.0969 ± 0.0033
AGGGTCAG	-0.136 ± 0.036
AGACAGAC	-0.0381 ± 0.013
GTAGACTA	-0.14 ± 0.053
ATATAGAA	-0.289 ± 0.088
AGTCGAGG	0.0144 ± 0.029
TAATAGAA	-0.0195 ± 0.012
ACTTACCA	0.137 ± 0.041
CCTTGGGA	-0.206 ± 0.074
ACCCCGAC	-0.0242 ± 0.1
CGGGCTAA	-0.275 ± 0.0053
TAGACACA	0.0942 ± 0.012
AGTTGTCA	0.393 ± 0.016
TCTATCCA	-0.391 ± 0.02

Sequence	PBM E-score of 8-mer
ACTTATCA	0.211 ± 0.039
ATAAGGGG	-0.0638 ± 0.01
TAATGCCA	-0.0895 ± 0.08
GCCTCAAC	-0.0908 ± 0.025
ACTTCCTG	-0.0587 ± 0.04
GAATCAAA	-0.134 ± 0.042
ATACTTAC	-0.183 ± 0.0065
CGATGCAG	-0.164 ± 0.022
AAGAAGAA	-0.203 ± 0.11
GCGATATA	0.133 ± 0.058
ATGTCGCA	0.231 ± 0.039
CAGAGGGA	-0.262 ± 0.021
CGGAACAC	-0.0489 ± 0.019
AGTCGTTG	0.136 ± 0.0015
ATACGCGC	0.179 ± 0.021
CCTACCGC	0.0182 ± 0.06
AGGTGTTC	0.3819 ± 0.00093
CAGGGGGG	-0.259 ± 0.0051
AGCTATTG	-0.0351 ± 0.028
GATAGAGC	-0.0174 ± 0.034
AAAGTTCA	-0.0472 ± 0.047
ACTTTACG	0.136 ± 0.0094
